Laboratory results taken from the supplement of paper PMC11417369.
± gives the standard deviation of the averaged measurements. Some of the results follow.

Test system: PfAP2-LT AP2 domain (GST-tagged)
Assay: gcPBM binding intensity (ln(normalized median fluorescence intensity)); higher = stronger DNA binding
Summary of the method: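 Binding of GST-tagged P. falciparum DNA-binding domains, expressed in E. coli and used at about 25 μg on average, was carried out for 1 h in 1× PBS containing 1% milk, 0.2 mg/ml BSA, 0.5% salmon testes DNA and 0.03% Triton X-100. The target was an Agilent 4 × 180k array of primer-extended double-stranded 36-bp intergenic genomic probes plus negative controls, read with Alexa488 anti-GST antibody at 488 nm. Binding intensity is the highest Masliner-normalised natural-log median intensity across replicate spots of either probe orientation.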

Sequence | gcPBM binding intensity (ln)
GATATGTTAAATATATGTACATATATAAACCCAAAC [XGTACX_site6601] | 9.1 ± 0.46
AAAGTAAAAAAAAAAACATGCATACGCTAATTTTTA [TGCATGCA_site301] | 8.39 ± 0.5
AAAAAGTGATTAAAATGTACAAAATGCATAAAAGAA [XGTACX_site6625] | 9.07 ± 0.41
ATTTTAATACTTTTATATTAAATGTAGCACATCATA [XGTACX_negctrl_site273] | 8.48 ± 0.52
CATTTTTTGCTTTCAACACACATACAATATAAATAA [CACACA_site7858] | 8.63 ± 0.41
TTATTTATTTAGTAGTGTACTTTTTATATTTATAAT [XGTACX_site5978] | 8.63 ± 0.55
TATCATATAAAACATGCACACATATGTACTCTTATA [CACACA_site9249] | 9.13 ± 0.35
AAAAAATAAGATTGTACACACATAAATTCTTTGTCA [CACACA_site2089] | 8.9 ± 0.48
CGTTCTATTTAGATATGTACTTAAATATATGATCAT [XGTACX_site2936] | 8.73 ± 0.37
TTAATAAAAATATATCCACACACATATATATATATG [CACACA_site8091] | 9.16 ± 0.3
ATCATTTATTTTTTAAAAGTATATATATATATATAT [CACACA_negctrl_site220] | 9.35 ± 0.11
TTTTTTTTTTTTTAAATAATCATACATGTGAAATTG [GTGCAC_negctrl_site328] | 8.27 ± 0.42
AAATATAAGTTTTATTGTACATTATATAGCATATTT [XGTACX_site6618] | 8.71 ± 0.36
ACATATTATAACATATGTACATATATATATATATAA [XGTACX_site5567] | 9.18 ± 0.25
TTTTGACATTAACTTAAAAAATAAATAATTATAAAA [XGTACX_negctrl_site552] | 8 ± 0.34
TATATATATATAAGTGCACACTGAACCAAGAAAATT [CACACA_site5637] | 9.17 ± 0.34
TATGTCTTGTTGTAAAATATTTATTAACAAATTGGC [CACACA_negctrl_site1452] | 8.46 ± 0.32
TTAAAGAATATTTTCACACATAAAAATTTTAATTTA [CACACA_site4290] | 8.04 ± 0.53
TTATAAAACACAAAATGTACAAAAAATTATAATTAA [XGTACX_site6859] | 8.65 ± 0.47
AATATTATTATCTTACCACACACAATCTACGAAAAG [CACACA_site8006] | 9.03 ± 0.33
GCCTATATGTTTAGTTGTACTCCTAATATTATTTGT [XGTACX_site6060] | 9.06 ± 0.39
CAAATTATTTCGAGGTGTACTTTTTTATATTATATT [XGTACX_site8309] | 8.8 ± 0.4
CCTAATTTTTTTAGTTGTACTTTTTTTTTTTTTTAT [XGTACX_site7948] | 8.49 ± 0.54

Sequence | gcPBM binding intensity (ln)
TATATAAATGGACACACACACACCTTATAATTATTA [CACACA_site6093] | 10 ± 0.38
AATGTGTTCATATATGCACACGCATATATATTATTG [CACACA_site9274] | 9.06 ± 0.35
TTTATAAATTGACACACACACATGTGAACATAAAAA [CACACA_site6978] | 9.37 ± 0.3
AATTATATATTATCATGTACAAATATAGTAATACAA [XGTACX_site6845] | 8.71 ± 0.35
AAAAAAAAAAAAAATAGTACGTAACTATAATTTCCT [XGTACX_site2457] | 8.63 ± 0.47
CTTATACTTCTACATCGTACAAAAGATGGTATAATT [XGTACX_site2698] | 8.71 ± 0.28
AAATTATAAGTAAAAAGTACTTAATATATAATAAAC [XGTACX_site6065] | 8.71 ± 0.53
TAACTTAAATAATACATACACACATGTACATACAGA [CACACA_site1594] | 9.02 ± 0.42
TATAATTTTTTTTGGGTGCTTGGGTAAATTTTATTA | 8.82 ± 0.3
CACGAAAAAAAAAAATGTACATAAAAATATGATACA [XGTACX_site2536] | 8.71 ± 0.49
GAAAGAGAAATATATACACACATATTTATATTTTTA [CACACA_site2066] | 8.78 ± 0.41
TCTCATTTCAACAACAGTACATATCTATCTGTGTAT [XGTACX_site6897] | 8.86 ± 0.4
AAAAAAAAAAAAAAAAAAAAAGGACGGATGGATGGA [GTGCAC_negctrl_site527] | 8.87 ± 0.38
ATACGTATATAATATACATGCATATATAGCACATAC [TGCATGCA_site376] | 9.1 ± 0.38
ATAAAAAAAAAAAAAAATGAAGCATCACCGTGTAAT [XGTACX_negctrl_site288] | 8.71 ± 0.47
TTTGTAATAACATATGCATGTTCAAAAAATAAAATA [TGCATGCA_site817] | 8.52 ± 0.42
ACGTTTTATTTTTATTGTACTCACATTGAAATGAAT [XGTACX_site6094] | 9.08 ± 0.42
ATTTTTTTATAAAATTTTTTATATATTAAATATTAT [CACACA_negctrl_site135] | 8.36 ± 0.47
AAAATTGTGCTTTCACGGACACAAGATCGAAATAGA [XGTACX_site4068] | 8.88 ± 0.32
ATTTTTTTTGTAAAAGTGCATATATATATATATATA | 9.77 ± 0.13
ATATATTTATACATTTGTACATATACATATTTCTGA [XGTACX_site3982] | 8.84 ± 0.5
GAAACGTTTTTGAGTAGTACACACACAATAAGGATG [XGTACX_site6809] | 9.31 ± 0.34
